Positions count from the first letter of the chain named. The list shows a part of the results.
T1: RBFOX1 RRM (Homo sapiens, UniProt Q9NWB1 109-208)
T1 sequence: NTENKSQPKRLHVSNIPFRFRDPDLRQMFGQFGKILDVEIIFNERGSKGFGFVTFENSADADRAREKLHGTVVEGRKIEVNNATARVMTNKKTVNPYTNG

B1: CGUGGGC (DNA:RNA)
RNA: GGGAGACCGGAAUUCAGAUUGUCCCGUGGGCUUAAAUCCCGUCGUAGCCACCA
DNA 1: CAATCTGAATTCCGGTCTCCC
DNA 2: TGGTGGCTACGACGGGATT
B2: AAAGAGG (DNA:RNA)
RNA: B1 RNA with C25A, G26A, U27A, G29A, C31G
DNA 1: CAATCTGAATTCCGGTCTCCC
DNA 2: TGGTGGCTACGACGGGATT
B3: UUCACAA (DNA:RNA)
RNA: GGGAGACCGGAAUUCAGAUUGUCCUUCACAAUUAAAUCCCGUCGUAGCCACCA
DNA 1: CAATCTGAATTCCGGTCTCCC
DNA 2: TGGTGGCTACGACGGGATT
B4: UGUAGCG (DNA:RNA)
RNA: B1 RNA with C25U, G28A, G30C, C31G
DNA 1: CAATCTGAATTCCGGTCTCCC
DNA 2: TGGTGGCTACGACGGGATT
B5: CGUCAGC (DNA:RNA)
RNA: B1 RNA with G28C, G29A
DNA 1: CAATCTGAATTCCGGTCTCCC
DNA 2: TGGTGGCTACGACGGGATT
B6: AGACUUG (DNA:RNA)
RNA: B1 RNA with C25A, U27A, G28C, G29U, G30U, C31G
DNA 1: CAATCTGAATTCCGGTCTCCC
DNA 2: TGGTGGCTACGACGGGATT
B7: UAAGUAA (DNA:RNA)
RNA: B3 RNA with U26A, C27A, A28G, C29U
DNA 1: CAATCTGAATTCCGGTCTCCC
DNA 2: TGGTGGCTACGACGGGATT
B8: AGGGUCU (DNA:RNA)
RNA: B1 RNA with C25A, U27G, G29U, G30C, C31U
DNA 1: CAATCTGAATTCCGGTCTCCC
DNA 2: TGGTGGCTACGACGGGATT
B9: CGGGGCG (DNA:RNA)
RNA: B1 RNA with U27G, G30C, C31G
DNA 1: CAATCTGAATTCCGGTCTCCC
DNA 2: TGGTGGCTACGACGGGATT

Target: T1, RBFOX1 RRM
Test: EMSA; HiTS-Eq, 1 nM pool, 10 min; buffer printed only for the single-RNA assays: 10 mM Tris pH 7.5, 150 mM NaCl, 3.4 mM EDTA, 0.001% NP-40, 30 C
Conditions: tags: His6 N-terminal (pET28a); label: 5' 32P
Summary of the method: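 Relative association constants, normalised to the cognate motif, were derived by comparing read counts of each RNA species with those of the control reaction. The RNA sequenced was the free fraction, separated by 8% native PAGE after a 10 min equilibration in 50 µL of 1 nM 5′-radiolabelled RNA (7 randomized nucleotides) with increasing concentrations of purified wild-type or mutant RbFox RRM.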

Row | Binder | binding signal
1 | B1 | 0.00926 KA relative to UGCAUGU
2 | B2 | 0.00665 KA relative to UGCAUGU
3 | B3 | 0.00317 KA relative to UGCAUGU
4 | B4 | 0.0149 KA relative to UGCAUGU
5 | B5 | 0.0106 KA relative to UGCAUGU
6 | B6 | 0.0166 KA relative to UGCAUGU
7 | B7 | 0.0096 KA relative to UGCAUGU
8 | B8 | 0.0254 KA relative to UGCAUGU
9 | B9 | 0.0306 KA relative to UGCAUGU

From PMC9911399, “Two distinct binding modes provide the RNA-binding protein RbFox with extraordinary sequence specificity”
